This note sets out measurements from the GPR68 mutational scans of Howard et al. (2025).

To fix the notation:
B1: GPR68, Q15743 (parent)
chain: MGNITADNSSMSCTIDHTIHQTLAPVVYVTVLVVGFPANCLSLYFGYLQIKARNELGVYLCNLTVADLFYICSLPFWLQYVLQHDNWSHGDLSCQVCGILLYENIYISVGFLCCISVDRYLAVAHPFRFHQFRTLKAAVGVSVVIWAKELLTSIYFLMHEEVIEDENQHRVCFEHYPIQAWQRAINYYRFLVGFLFPICLLLASYQGILRAVRRSHGTQKSRKDQIQRLVLSTVVIFLACFLPYHVLLLVRSVWEASCDFAKGVFNAYHFSLLLTSFNCVADPVLYCFVSETTHRDLARLRGACLAFLTCSRTGRAREAYPLGAPEASGKSGAQGEEPELLTKLHPAFQTPNSPGSGGFPTGRLA

In data set [1] the parent is B1. Put plainly: cAMP reporter score (Enrich2 score, wild type = 0); higher = more signal; HEK293T, FACS bins.
In data set [2] the parent is B1. Put plainly: surface expression score (Enrich2 score, wild type = 0); higher = more signal; HEK293T, FACS bins.

The least precise scores are not listed. Two further conditions of the source, in which the scores hardly spread, are not listed. Read del as a deletion of the residues named and ins as an insertion between two positions. For some assays here: The concentration of ogerin is not given here.

On to MGNITADNSSMSCTIDHTIHQTLAPVVYVTVLVVGFPANCLSLYFGYLQIKARNELGVYLCNLTVADLFYICSLPFWLQYVLQHDNWSHGDLSCQVCGILLYENIYISVGFLCCISVDRYLAVAHPFRFHQFRTLKAAVGVSVVIWAKELLTSIYFLMHEEVIEDENQHRVCFEHYPIQAWQRAINYYRFLVGFLFPICLLLASYQGILRAVRRSHGTQKSRKDQIQRLVLSTVVIFLACFLPYHVLLLVRSVWEASCDFAKGVFNAYHFSLLLTSFNCVADPVLYCFVSETTHRDLARLRGACLAFLTCSRTGRAREAYPLGAPEAQGKSGAQGEEPELLTKLHPAFQTPNSPGSGGFPTGRLA [S328Q], for which the cAMP reporter score in data set [1] (pH 5.5) is 0.745; in data set [1] (pH 6), -0.002; in data set [1] (pH 6, modulator: ogerin), 0.988; in data set [1] (pH 6.5, modulator: ogerin), -0.041. Further, in data set [2], the surface expression score came to 0.445.

For the variant MGNITADNSSMSCTIDHTIHQTLAPVVYVTVLVVGFPANCLSLYFGYLQIKARNELGVYLCNLTVADLFYICSLPFWLQYVLQHDNWSHGDLSCQVCGILLYENIYISVGFLCCISVDRYLAVAHPFRFHQFRTLKAAVGVSVVIWAKELLTSIYFLMHEEVIEDENQHRVCFEHYPIQAWQRAINYYRFLVGFLFPICLLLASYQGILRAVRRSHGTQKSRKDQIQRLVLSTVVIFLACFLPYHVLLLVRSVWEASCDFAKGVFNAYHFSLLLTSFNCVADPVLYCFVSETTHRDLARLRGACLAFLTCSRTGRAREAYPLGAPEATGKSGAQGEEPELLTKLHPAFQTPNSPGSGGFPTGRLA [S328T], the cAMP reporter score in data set [1] (pH 5.5) is -0.09; in data set [1] (pH 6), -0.319; in data set [1] (pH 6, modulator: ogerin) it was -0.078; in data set [1] (pH 6.5, modulator: ogerin), 0.407. The surface expression score in data set [2] came out at 0.883.

For the variant MGNITADNSSMSCTIDHTIHQTLAPVVYVTVLVVGFPANCLSLYFGYLQIKARNELGVYLCNLTVADLFYICSLPFWLQYVLQHDNWSHGDLSCQVCGILLYENIYISVGFLCCISVDRYLAVAHPFRFHQFRTLKAAVGVSVVIWAKELLTSIYFLMHEEVIEDENQHRVCFEHYPIQAWQRAINYYRFLVGFLFPICLLLASYQGILRAVRRSHGTQKSRKDQIQRLVLSTVVIFLACFLPYHVLLLVRSVWEASCDFAKGVFNAYHFSLLLTSFNCVADPVLYCFVSETTHRDLARLRGACLAFLTCSRTGRAREAYPLGAPEAPGKSGAQGEEPELLTKLHPAFQTPNSPGSGGFPTGRLA [S328P], the cAMP reporter score in data set [1] (pH 5.5) turned out to be 0.547; in data set [1] (pH 6), 1.3; in data set [1] (pH 6, modulator: ogerin) it was 0.883; in data set [1] (pH 6.5, modulator: ogerin), 0.915. Further, the surface expression score in data set [2] stood at 0.109.

As for MGNITADNSSMSCTIDHTIHQTLAPVVYVTVLVVGFPANCLSLYFGYLQIKARNELGVYLCNLTVADLFYICSLPFWLQYVLQHDNWSHGDLSCQVCGILLYENIYISVGFLCCISVDRYLAVAHPFRFHQFRTLKAAVGVSVVIWAKELLTSIYFLMHEEVIEDENQHRVCFEHYPIQAWQRAINYYRFLVGFLFPICLLLASYQGILRAVRRSHGTQKSRKDQIQRLVLSTVVIFLACFLPYHVLLLVRSVWEASCDFAKGVFNAYHFSLLLTSFNCVADPVLYCFVSETTHRDLARLRGACLAFLTCSRTGRAREAYPLGAPEARGKSGAQGEEPELLTKLHPAFQTPNSPGSGGFPTGRLA [S328R], the cAMP reporter score in data set [1] (pH 5.5) was 0.224; in data set [1] (pH 6), -0.514; in data set [1] (pH 6, modulator: ogerin) it was 0.825; in data set [1] (pH 6.5, modulator: ogerin) it was 0.745. For the same variant, the surface expression score in data set [2] worked out at 0.461.
